Assay results published in the supplement of paper PMC8728848.
The other results are listed elsewhere or left out.

Columns and labels:
Assay in all cases: glycan array binding signal (z-score within array); higher = stronger binding
Details in all cases: glycan notation: IUPAC condensed, linker removed
[1] = target: Fuc(a1-2)[GalNAc(a1-3)]Gal(b1-3)GlcNAc(b1-3)GalNAc
Procedure, shortened: (§1)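 Glycan array data came from 3228 arrays in the Consortium for Functional Glycomics database, and only arrays with an available protein sequence were kept. Glycan names were put into IUPAC-condensed notation, and columns mapping to the same glycan were averaged. The binding signal is a within-array Z-score, averaged across arrays of one protein sequence run at different concentrations or buffers and across linkers. A negative Z-score can be read as non-binding.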

[2] = target: Fuc(a1-2)[GalNAc(a1-3)]Gal(b1-3)GlcNAc(b1-6)GalNAc
Procedure, shortened: as §1

[3] = target: Fuc(a1-2)[GalNAc(a1-3)]Gal(b1-4)Glc
Procedure, shortened: as §1

[4] = target: Fuc(a1-2)[GalNAc(a1-3)]Gal(b1-4)GlcNAc
Procedure, shortened: as §1

[5] = target: Fuc(a1-2)[GalNAc(a1-3)]Gal(b1-4)GlcNAc(b1-2)Man
Procedure, shortened: as §1

[6] = target: Fuc(a1-2)[GalNAc(a1-3)]Gal(b1-4)GlcNAc(b1-2)Man(a1-3)[Fuc(a1-2)[GalNAc(a1-3)]Gal(b1-4)GlcNAc(b1-2)Man(a1-6)]Man(b1-4)GlcNAc(b1-4)GlcNAc
Procedure, shortened: as §1

[7] = target: Fuc(a1-2)[GalNAc(a1-3)]Gal(b1-4)GlcNAc(b1-2)Man(a1-3)[Fuc(a1-2)[GalNAc(a1-3)]Gal(b1-4)GlcNAc(b1-2)Man(a1-6)]Man(b1-4)GlcNAc(b1-4)[Fuc(a1-6)]GlcNAc
Procedure, shortened: as §1

[8] = target: Fuc(a1-2)[GalNAc(a1-3)]Gal(b1-4)GlcNAc(b1-3)Gal(b1-4)GlcNAc
Procedure, shortened: as §1

[9] = target: Fuc(a1-2)[GalNAc(a1-3)]Gal(b1-4)GlcNAc(b1-3)Gal(b1-4)GlcNAc(b1-3)Gal(b1-4)GlcNAc
Procedure, shortened: as §1

[10] = target: Fuc(a1-2)[GalNAc(a1-3)]Gal(b1-4)GlcNAc(b1-3)GalNAc
Procedure, shortened: as §1

[11] = target: Fuc(a1-2)[GalNAc(a1-3)]Gal(b1-4)GlcNAc(b1-3)[Fuc(a1-2)[GalNAc(a1-3)]Gal(b1-4)GlcNAc(b1-6)]GalNAc
Procedure, shortened: as §1

[12] = target: Fuc(a1-2)[GalNAc(a1-3)]Gal(b1-4)GlcNAc(b1-6)GalNAc
Procedure, shortened: as §1

[13] = target: Fuc(a1-2)[GalNAc(a1-3)]Gal(b1-4)[Fuc(a1-3)]GlcNAc
Procedure, shortened: as §1

[14] = target: Fuc(a1-2)[GalNAc(a1-3)]Gal(b1-4)[Fuc(a1-3)]GlcNAc(b1-3)GalNAc
Procedure, shortened: as §1

[15] = target: Fuc(a1-2)[GalNAc(a1-4)]Gal(b1-4)GlcNAc
Procedure, shortened: as §1

[16] = target: Fuc(a1-2)[GalNAc(b1-3)]Gal
Procedure, shortened: as §1

Fuc(a1-3)GlcNAc = target: Fuc(a1-3)GlcNAc
Procedure, shortened: as §1

[17] = target: Fuc(a1-3)[Gal(b1-4)]Glc6S
Procedure, shortened: as §1

[18] = target: Fuc(a1-3)[Gal(b1-4)]GlcNAc
Procedure, shortened: as §1

[19] = target: Fuc(a1-3)[Gal(b1-4)]GlcNAc(b1-2)Man
Procedure, shortened: as §1

[20] = target: Fuc(a1-3)[Gal(b1-4)]GlcNAc(b1-2)Man(a1-3)[Fuc(a1-3)[Gal(b1-4)]GlcNAc(b1-2)Man(a1-6)]Man(b1-4)GlcNAc(b1-4)GlcNAc
Procedure, shortened: as §1

[21] = target: Fuc(a1-3)[Gal(b1-4)]GlcNAc(b1-2)Man(a1-3)[Fuc(a1-3)[Gal(b1-4)]GlcNAc(b1-2)Man(a1-6)]Man(b1-4)GlcNAc(b1-4)[Fuc(a1-6)]GlcNAc
Procedure, shortened: as §1

[22] = target: Fuc(a1-3)[Gal(b1-4)]GlcNAc(b1-3)Gal(b1-3)[Fuc(a1-4)]GlcNAc
Procedure, shortened: as §1

[23] = target: Fuc(a1-3)[Gal(b1-4)]GlcNAc(b1-3)Gal(b1-4)[Fuc(a1-3)]GlcNAc
Procedure, shortened: as §1

[24] = target: Fuc(a1-3)[Gal(b1-4)]GlcNAc(b1-3)Gal(b1-4)[Fuc(a1-3)]GlcNAc(b1-3)Gal(b1-4)[Fuc(a1-3)]GlcNAc
Procedure, shortened: as §1

[25] = target: Fuc(a1-3)[Gal(b1-4)]GlcNAc(b1-3)GalNAc
Procedure, shortened: as §1

[26] = target: Fuc(a1-3)[Gal(b1-4)]GlcNAc(b1-6)GalNAc
Procedure, shortened: as §1

[27] = target: Fuc(a1-3)[Gal(b1-4)]GlcNAc(b1-6)[Gal(b1-3)GlcNAc(b1-3)]Gal(b1-4)Glc
Procedure, shortened: as §1

[28] = target: Fuc(a1-3)[Gal(b1-4)]GlcNAc6S
Procedure, shortened: as §1

[29] = target: Fuc(a1-3)[Gal3S(b1-4)]Glc
Procedure, shortened: as §1

[30] = target: Fuc(a1-3)[Gal3S(b1-4)]GlcNAc
Procedure, shortened: as §1

[31] = target: Fuc(a1-3)[Gal3S(b1-4)]GlcNAc6S
Procedure, shortened: as §1

[32] = target: Fuc(a1-3)[GalNAc(b1-4)]GlcNAc
Procedure, shortened: as §1

[33] = target: Fuc(a1-3)[GalNAc(b1-4)]GlcNAc6S
Procedure, shortened: as §1

Fuc(a1-4)GlcNAc = target: Fuc(a1-4)GlcNAc
Procedure, shortened: as §1

Fuc(b1-3)GlcNAc = target: Fuc(b1-3)GlcNAc
Procedure, shortened: as §1

Gal(a1-2)Gal = target: Gal(a1-2)Gal
Procedure, shortened: as §1

B1: Als3-N (Candida albicans) (protein)
chain: KTITGVFNSFNSLTWSNAATYNYKGPGTPTWNAVLGWSLDGTSASPGDTFTLNMPCVFKFTTSQTSVDLTAHGVKYATCQFQAGEEFMTFSTLTCTVSNTLTPSIKALGTVTLPLAFNVGGTGSSVDLEDSKCFTAGTNTVTFNDGGKKISINVDFERSNVDPKGYLTDSRVIPSLNKVSTLFVAPQCANGYTSGTMGFANTYGDVQIDCSNIHVGITKGLNDWNYPVSSESFSYTKTCSSNGIFITYKNVPAGYRPFVDAYISATDVNSYTLSYANEYTCAGGYWQRAPFTLRWTGYRNSDAGSNGIVIVATTRTVTDSTTAVTTLPFDPNRDKTKTIEILKPIPTTTITTSYVGVTTSYLTKTAPIGETATVIVDIPYHTTTTVTSKWTGTITSTTTHTNPTDSIDTVIVQVP
glycan array binding signal (z-score) [1]: 0.137 | glycan array binding signal (z-score) [2]: -0.223 | glycan array binding signal (z-score) [3]: 0.062 | glycan array binding signal (z-score) [4]: -0.204 | glycan array binding signal (z-score) [5]: -0.268 | glycan array binding signal (z-score) [6]: -0.334 | glycan array binding signal (z-score) [7]: -0.23 | glycan array binding signal (z-score) [8]: -0.109 | glycan array binding signal (z-score) [9]: 0.129 | glycan array binding signal (z-score) [10]: -0.064 | glycan array binding signal (z-score) [11]: -0.323 | glycan array binding signal (z-score) [12]: -0.219 | glycan array binding signal (z-score) [13]: 0.042 | glycan array binding signal (z-score) [14]: 0.87 | glycan array binding signal (z-score) [15]: -0.308 | glycan array binding signal (z-score) [16]: -0.257 | glycan array binding signal (z-score) (Fuc(a1-3)GlcNAc): -0.349 | glycan array binding signal (z-score) [17]: 0.122 | glycan array binding signal (z-score) [18]: -0.254 | glycan array binding signal (z-score) [19]: -0.272 | glycan array binding signal (z-score) [20]: -0.094 | glycan array binding signal (z-score) [21]: 0.273 | glycan array binding signal (z-score) [22]: -0.069 | glycan array binding signal (z-score) [23]: -0.034 | glycan array binding signal (z-score) [24]: -0.152 | glycan array binding signal (z-score) [25]: 0.226 | glycan array binding signal (z-score) [26]: 0.176 | glycan array binding signal (z-score) [27]: -0.325 | glycan array binding signal (z-score) [28]: 0.216 | glycan array binding signal (z-score) [29]: -0.001 | glycan array binding signal (z-score) [30]: -0.229 | glycan array binding signal (z-score) [31]: 0.103 | glycan array binding signal (z-score) [32]: -0.095 | glycan array binding signal (z-score) [33]: 0.068 | glycan array binding signal (z-score) (Fuc(a1-4)GlcNAc): 0.178 | glycan array binding signal (z-score) (Fuc(b1-3)GlcNAc): -0.293 | glycan array binding signal (z-score) (Gal(a1-2)Gal): -0.249
